# From paper PMC6212790
# This is one part of the list. At the low end of the ranking, values are background and their order means little.
# Biological target: T1, GST-Rok (full length) (UniProt O34857)
# T1 sequence: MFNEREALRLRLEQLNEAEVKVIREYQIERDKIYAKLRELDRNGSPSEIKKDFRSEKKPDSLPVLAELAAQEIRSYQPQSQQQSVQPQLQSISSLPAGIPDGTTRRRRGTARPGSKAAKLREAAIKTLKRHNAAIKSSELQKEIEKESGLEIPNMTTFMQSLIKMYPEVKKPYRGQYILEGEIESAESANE
# Assay: protein binding microarray;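 note: rank score from −0.5 (least bound) to 0.5 (best bound)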
# Details: Rok is a gene silencer of Bacillus subtilis; high values mean tight binding; most listed sequences are background and not binding sites; double strand, one strand shown
row,Sequence,binding signal [E-score]
1,GACGCACC,-0.28
2,CCCTCTCA,-0.26
3,GCCTCGTA,-0.204
4,GTGTAGAA,0.292
5,AACTACGC,0.201
6,TGTAAAAA,0.317
7,GTTGTTTA,-0.0278
8,CGCGGGGC,-0.316
9,AAGCCCCC,-0.461
10,ACACGCGA,0.0175
11,CCGTTTCA,-0.174
12,AATTTCCA,0.104
13,GCTTTTTA,0.157
14,ACCCGCGT,-0.099
15,GCCGCCAC,-0.216
16,CAGCTCCC,-0.366
17,CTAACATC,0.18
18,AAAATAAT,0.246
19,CCGTGAGG,-0.256
20,AACCCTAC,0.0465
21,ACGCGTCG,0.024
22,AAGTGTGT,0.096

row,Sequence,binding signal [E-score]
1,TAGACAAA,0.0516
2,AATGTCCA,0.0401
3,ACACCCTG,-0.00397
4,GTCTGCAC,-0.13
5,GGCCGGCC,-0.34
6,CTCTGCGC,-0.0551
7,TCGCACAA,0.0863
8,CACTATCA,0.219
9,ACTGGGCC,-0.286
10,CATAATGC,0.235
11,ATGTCGAC,0.0407
12,AATGCACT,-0.0288
13,AACGTTTA,0.123
14,CTGGAAGC,-0.219
15,AACACCCG,-0.142
16,AGTGTATC,0.129
17,CATACAAA,0.288
18,GCGGCCAA,-0.188
19,ATAATTCA,0.21
20,ACATTAAC,0.213
21,CTTTAAAG,0.0411
22,CCGGCATC,-0.236

row,Sequence,binding signal [E-score]
1,ACTCACAT,-0.00348
2,GGGGTAAC,-0.248
3,TAATCTAA,0.241
4,CCTAATAG,0.0183
5,CAAAGTTC,-0.0163
6,AGTATCAT,0.196
7,GGACTCAC,-0.132
8,ATTCTGCA,0.137
9,AACAGGCG,-0.0571
10,GAGCTTCC,-0.309
11,ACATGGTA,0.231
12,CATCCGCG,-0.0996
13,CATCCCCC,-0.393
14,CCTAACTC,-0.219
15,GACCCCGA,-0.356
16,ATTCCAGC,-0.0834
17,GATCGATA,0.269
18,CACGGGCG,-0.264
19,CAAATGGA,-0.213
20,GTAGGGAA,0.0177
21,CAGTATCG,0.199
22,CGTCTGGA,-0.0488

row,Sequence,binding signal [E-score]
1,ACTCCTGG,-0.187
2,GTTAAAAC,0.127
3,CGGTGTAC,-0.139
4,ACATGGGG,-0.0896
5,CAGGCCAA,-0.252
6,AATTGAGC,-0.0437
7,AGACCGGC,-0.0591
8,ATCCATCG,-0.0491
9,ATGAACAA,0.166
10,AGTCCGTG,0.00594
11,ACACGATG,0.0393
12,GGAACCGA,-0.146
13,CTCTATTC,0.00987
14,AATTCTCC,0.199
15,ATAATCGG,-0.143
16,CACTAAGC,-0.0899
17,CCGACCCA,-0.225
18,ATCGTGCC,0.00076
19,AGTCACGG,-0.189
20,CATAAATA,0.195
